Consider 88 compounds from PubChem BioAssay AID463173 (ICCB-Longwood Screening Facility, Harvard Medical School, 2010).

The campaign covered roughly 52,000 compounds. About 4,300 (8.3%) were called active. Cut-off read from the data, not from the text of the source: active = survival mostly below about 52% (no sharp cut-off); inactive = mostly above about 56%. The list shows a part of the results.

This assay concerns DeltatarO mutant. Description: growth inhibition of S. aureus wild type versus tarO mutant, primary screen, teichoic acid synthesis inhibitors, RN4220, OD600 (AID 463173). Particulars: OD600, 18 h, stronger effect = lower value, screened at 18.75 µg/mL (by protocol).
For the compound `CCCc1cc(=O)n2[nH]c(-c3ccc(C)cc3)nc2n1`, the survival was inactive: 83%.
To `COc1ccc(-c2cc(C(F)(F)F)nc(SCC(=O)NCCc3ccc(OC)c(OC)c3)n2)cc1` belongs inactive: 59%; to `Cc1ccc(NC(=O)N2CCC(CN3CCC(C)CC3)CC2)cc1F`, inactive: 89%; to `Cc1ccc(NC(=O)C2CCCN(c3nnc(-n4c(C)ccc4C)s3)C2)cc1Cl` (stereo not drawn), inactive: 80%.
With `COc1cccc(CNC(=O)C(NS(=O)(=O)c2ccc3nc(C)sc3c2)C(C)C)c1` (stereo not drawn), the survival is inactive: 86%.
For `COc1cc(CNC(=O)c2cc3n(n2)CCCN(Cc2ccc(C)cc2)C3=O)cc(OC)c1OC`, the survival was inactive: 58%.
For `Cc1c(NC(=O)c2sc3c([N+](=O)[O-])cccc3c2Cl)cccc1-c1nc2ccccc2o1`, the survival is inactive: 65%.
`Cc1ccc(-c2c3c(=O)n(C)c(=O)n(C)c3c3c(C(F)(F)F)nc4ccccc4n23)cc1`: the survival was inactive: 77%.
Regarding `CC1(C)CC(=NNC(=O)c2n[nH]c3c2CCC3)CC(C)(C)N1`, the survival is inactive: 92%.
To `CCS(=O)(=O)N1CC(=O)N(c2cccc(C)c2C)C(C)(C(=O)NC2CCCCC2)C1` (stereo not drawn) belongs inactive: 83%.
Take `CCOC(=O)c1[nH]c(C)c(CCC(=O)Nc2ccc(N(CC)CC)cc2C)c1C`: the survival was inactive: 91%.
As for `CC(C)c1ccc(NC(=O)c2ccc(NC(=O)CCS(=O)(=O)c3cccs3)cc2)cc1`, the survival is inactive: 76%.
Take `Cc1ccc(CCNc2nc3c(S(=O)(=O)c4ccc(C)cc4)nnn3c3ccsc23)cc1`: the survival was inactive: 108%.
For `Cc1ccc(-n2ncc3c(NCCCc4ccccc4)ncnc32)cc1C` the value was inactive: 88%; for `COC(=O)c1cc2oc(C)cc2n1CC(=O)Nc1ccc(C)cc1C`, inactive: 84%; for `O=C(Cn1c(=O)n(Cc2ccccc2)c(=O)c2oc3ccccc3c21)Nc1ccc(Cl)cc1`, inactive: 66%.
For `Cc1ccc(/C=C/c2onc(C)c2S(=O)(=O)N2CCC(C(=O)N3CCOc4ccccc43)CC2)cc1`, the survival was inactive: 105%.
As to `CC(=O)Nc1cc(C(=O)NCc2ccc(F)cc2Cl)ccc1Sc1ccc(Cl)cc1`, the survival was inactive: 113%.
For the compound `Cc1nc(-c2ccc(F)cc2)sc1CCNC(=O)c1ccco1`, the survival is inactive: 116%.
Regarding `CCc1ccc(CNC(=O)CCN2C(=O)COc3ccccc32)cc1`, the survival was inactive: 66%.
As for `Cc1cc(C)cc(NC(=O)Cn2nnc(C(=O)Nc3cc(C)cc(C)c3)c2N)c1`, the survival is inactive: 74%.
Take `COc1cc(NC(=O)Cn2c(C)cc3ccccc3c2=O)cc(OC)c1OC`: the survival was inactive: 59%.
Take `CN1c2ccccc2Oc2nnc(N3CCN(Cc4ccccc4)CC3)cc21`: the survival was inactive: 93%.
On to `COc1cc(OC)cc(C(=O)Nc2c(C(=O)Nc3ccc(F)cc3)oc3ccccc23)c1`, for which the survival is inactive: 62%.
On to `CSc1ccc(CCNC(=O)C(C)n2c(C)c3cnn(-c4ccccc4)c(=O)c3c2C)cc1` (stereo not drawn), for which the survival was inactive: 60%.
For the compound `Cc1oc(C2CC2)cc1C(=O)O`, the survival is inactive: 70%.
To `NC(=O)c1cc(S(=O)(=O)N2CCCCC2)cs1` belongs inactive: 66%; to `COc1ccc(NC(=O)Cn2nnc(C(=O)NCc3ccccc3Cl)c2N)cc1Cl`, inactive: 66%.
To `COc1ccc(CCn2c3c(c(=O)[nH]c2=O)C(NC(=O)c2ccccc2)(C(F)(F)F)C(=O)N3)cc1OC` (stereo not drawn) belongs inactive: 58%; to `O=C(CCS(=O)(=O)c1ccc2c(c1)NC(=O)CO2)Nc1cccc(C(F)(F)F)c1`, inactive: 90%.
To `CCNC(=O)CC1C(=O)N(c2ccc(C)cc2)C(=O)N1Cc1ccc(C)cc1` (stereo not drawn) belongs inactive: 78%; to `Oc1ccc(Cl)cc1Nc1nc2ccccc2n2cnnc12`, inactive: 67%; to `O=C(CC(c1ccccc1)c1cc(Br)ccc1O)NCC1(c2ccccc2)CCCC1` (stereo not drawn), inactive: 127%.
With `COc1ccc(CNC(=O)CCCc2cn(C)c3ccccc23)c(OC)c1`, the survival was inactive: 87%.
As for `COc1ccccc1N(Cc1cc2cccc(C)c2[nH]c1=O)C(=O)c1cccc(Cl)c1`, the survival was inactive: 98%.
Regarding `Cc1ccc(Cl)cc1N1CCN(C(=O)Cn2cnc3nc4c(cc3c2=O)CCCC4)CC1`, the survival is inactive: 68%.
In the case of `N#C/C(=C\c1cn(CCOc2ccccc2F)c2ccccc12)C(=O)NC1CC1`, the survival is inactive: 72%.
Take `Cc1ccc(C)n1-c1nnc(N2CCCC(C(=O)NCc3ccc(F)cc3)C2)s1` (stereo not drawn): the survival was inactive: 93%.
Regarding `O=C(NCc1ccc(Cl)cc1)c1cc2ccccc2o1`, the survival was active: 61%.
On to `CCN(CC)C(=O)Cn1c(=O)n(CCCCCC(=O)NCc2ccccc2Cl)c(=O)c2sccc21`, for which the survival is inactive: 139%.
Consider `O=C(NCc1cccc(Br)c1)c1cccn1-c1nnc(N2CCCCC2)s1`, for which the survival was inactive: 78%.
Consider `CCn1cc(S(=O)(=O)c2cc(C)cc(C)c2)c(=O)c2cc(F)c(N3CCC(C)CC3)cc21`, for which the survival was inactive: 64%.
In the case of `Cc1ccc2nc(-c3ccc(C)c(NC(=O)CSc4ccc(Cl)cc4)c3)oc2c1`, the survival was inactive: 85%.
To `CCOc1ccc(N(C(=O)c2ccc(C)cc2)S(=O)(=O)c2ccc3c(c2)n(C)c(=O)n3C)cc1` belongs inactive: 45%; to `CCN1CCN(C(=O)c2ccc3c(c2)N(Cc2cccc(F)c2)C(=O)c2ccccc2S3)CC1`, inactive: 85%.
For `COCCCNC(=O)Cn1cnc2sc(C)c(S(=O)(=O)N3CCN(c4ccccc4OC)CC3)c2c1=O` the value was inactive: 82%; for `CCOC(=O)c1cc(-c2ccc(C)cc2)n(CCC(=O)Nc2ccc(OC)c(OC)c2)c1C`, active: 52%.
As to `CCCCCN1C(C(=O)c2ccccc2)=C(NC(=O)c2ccccc2Cl)c2ccccc2S1(=O)=O`, the survival was inactive: 75%.
In the case of `COc1ccc(CCNC(=O)c2ccc3c(c2)N(Cc2ccc(Cl)cc2)CCS3)c(OC)c1`, the survival was inactive: 83%.
As to `O=C(CCn1c(=O)c2cccn2c2cccnc21)N1CCN(c2cccc(Cl)c2)CC1`, the survival is active: 46%.
For `Cc1cccc(-c2nc(SCC(=O)Nc3ccc4c(c3)OCO4)c(-c3ccccc3)[nH]2)c1` the value was active: 40%; for `COc1ccc(NC(=O)C2CCCN2S(=O)(=O)c2ccc3nc(-c4ccccc4)[nH]c3c2)cc1` (stereo not drawn), inactive: 77%; for `Cc1cccc(C)c1NC(=O)CS(=O)CC(=O)NC1CCCc2ccccc21` (stereo not drawn), inactive: 84%.
For `CN1C(=O)Cc2cc(S(=O)(=O)NCCc3ccccc3)ccc21` the value was inactive: 123%; for `CCN(CC)C(=O)Oc1ccc(Cl)c2cccnc12`, inactive: 102%.
With `COC(=O)c1ccc(NC(=O)C2CCN(C(=O)c3ccc(F)cc3)CC2)cc1`, the survival is inactive: 73%.
`Cc1cc(C)nc(NCCS)n1`: the survival was inactive: 76%.
Take `N#Cc1cccc(NC(=O)C2CCN(c3ncccn3)CC2)c1`: the survival is inactive: 66%.
With `CCOc1cc(C(=O)Nc2ccc(-c3nc4ncccc4o3)cc2C)cc(OCC)c1OCC`, the survival is active: 52%.
Take `COc1ccc2[nH]c(=O)c(CN(CCCN3CCOCC3)C(=O)NCc3ccccc3)cc2c1`: the survival was inactive: 86%.
To `COC(=O)c1c(NC(=O)COc2cc(C)ccc2C(C)C)sc2c1CCC(C)C2` (stereo not drawn) belongs inactive: 61%; to `O=C1C(=O)N(c2cccnc2)C(c2ccc(O)cc2)/C1=C(\O)c1ccc(Br)cc1` (stereo not drawn), inactive: 95%; to `CC(=O)c1ccc(N2CCN(S(=O)(=O)c3ccc(-c4cc(C)no4)s3)CC2)cc1`, active: -5%.
As to `COc1ccc(-c2nc3n(n2)C(=O)CC(c2ccc(Cl)cc2)S3)cc1` (stereo not drawn), the survival is inactive: 57%.
Take `Cc1ccc(-c2ccc(=O)n(CC(=O)NCc3ccc(F)cc3)n2)cc1`: the survival is inactive: 92%.
In the case of `CCOC(=O)C1CCN(S(=O)(=O)c2ccc3c(c2)NC(=O)C(C)C(=O)N3)CC1` (stereo not drawn), the survival is inactive: 105%.
`Cc1ccc2nc3c(cc(C(=O)NC4CCCCC4)c(=N)n3C(C)C)c(=O)n2c1`: the survival was inactive: 78%.
For the compound `CCOC(=O)c1ccc(NC(=O)CC2NCCNC2=O)cc1` (stereo not drawn), the survival was inactive: 78%.
For `CCn1c2ccccc2c2cc(NC(=O)COc3ccc(C)c(C)c3)ccc21` the value was inactive: 119%; for `COc1ccc2c(c1)c1c(c(=O)n(-c3ccccc3C)c(=O)n1CC(=O)Nc1c(C)cccc1C)n2C`, inactive: 91%; for `Cc1ccccc1Nc1nn2c(=O)c3ccc(C(=O)N4CCCC(C)C4)cc3nc2s1` (stereo not drawn), inactive: 95%.
For `O=c1c2[nH]c3ccccc3c2nc(SCc2cccc(F)c2)n1-c1ccccc1` the value was inactive: 54%.
`O=C(O)CCc1ccc(-c2ccccc2)n1CC(=O)Nc1ccccc1C(F)(F)F`: the survival was inactive: 60%.
To `COc1ccccc1CNC(=O)CCCCn1c(=O)c2ccccc2n(CC(=O)Nc2cc(Cl)ccc2C)c1=O` belongs inactive: 82%; to `Cn1c(=O)[nH]c2cc(-c3noc(-c4ccc(F)cc4)n3)ccc21`, inactive: 126%.
`CCn1c(=O)cc(SCC(=O)NCCc2ccc(OC)cc2OC)c2ccccc21`: the survival is inactive: 60%.
In the case of `COCCCNC(=O)CSc1nc(-c2ccccc2)[nH]c1-c1ccc(C)cc1`, the survival was inactive: 71%.
In the case of `CCc1ccc(-n2c(=O)c3c4c(sc3n(CC(=O)NC(C)CC)c2=O)CCCC4)cc1` (stereo not drawn), the survival is inactive: 98%.
On to `CCn1c(Cc2ccccc2)nnc1SCC(=O)Nc1ccccc1`, for which the survival is inactive: 90%.
With `CCCn1c(=O)c2sccc2n2c(CCCC(=O)Nc3cccc(CC)c3)nnc12`, the survival is inactive: 99%.
For `CCc1cnc2c(c1SCC(=O)Nc1ccc(C)cc1C)c(=O)n(C)c(=O)n2C`, the survival is inactive: 86%.
For `Cc1ccc(NC(=O)CCC(=O)N2Cc3ccccc3Oc3ncccc32)cc1` the value was inactive: 49%; for `COc1cccc(OC)c1C(=O)Nc1ccc2c(c1)N(C(C)=O)CCC2`, inactive: 78%.
Consider `O=C(CCc1ccccc1)NC1CC(=O)N(c2ccccc2)C1` (stereo not drawn), for which the survival is inactive: 94%.
For `CNc1cc(=O)n(C)c(=O)[nH]1` the value was inactive: 98%; for `O=C1CC(c2ccc(Cl)cc2)Sc2nc(-c3ccc(F)cc3)nn21` (stereo not drawn), inactive: 81%; for `O=C(CC1(c2ccc(Cl)cc2)C(=O)c2ccccc2C1=O)N1CCOCC1`, inactive: 79%.
For `CCOc1ccc(CNS(=O)(=O)c2cc(-c3cc(C)no3)ccc2C)cc1OC` the value was inactive: 77%.
